# In the supplement of paper PMC12217912:
# The list shows a part of the results. Sequences were assembled here from the parent chain. Inactive controls read about 0.05.
# B1: TEV protease; numbered along this chain (parent)
# chain: MGESLFKGPRDYNPISSSICHLTNESDGHTTSLYGIGFGPFIITNKHLFRRNNGTLVVQSLHGVFKVKDTTTLQQHLVDGRDMIIIRMPKDFPPFPQKLKFREPQREERICLVTTNFQTKSMSSMVSDTSCTFPSGDGIFWKHWIQTKDGQCGSPLVSTRDGFIVGIHSASNFTNTNNYFTSVPKNFMELLTNQEAQQWVSGWRLNADSVLWGGHKVFMVKPEEPFQPVKEATQL
# Variants of: B1
# Experiment: raw area under fraction-flipped curve 0-4 h after induction (AUC4h, not background-subtracted), DNA-recorder readout of cleavage of the substrate (dimensionless); higher = more cleavage of the substrate by the protease variant
# Conditions: temperature: 34 °C; time window: 0-4 h after rhamnose induction
# Description: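 In vivo DNA recorder in E. coli TOP10(DE3) ΔrhaA at 34 °C. Each TEVp single-site mutant (parent TEVp 0) is paired with a single-site variant of the 7-mer TEVs (canonical ENLYFQ|S). The substrate sits between flexible linkers in a Bxb1-sfGFP-TEVs-SsrA fusion, so cleavage stabilises Bxb1 and speeds flipping of a recombination array, read by NGS. The value is the raw area under the fraction-flipped curve over 0-4 h after rhamnose induction (AUC4h), with ≥20 reads per time point. It is not background-subtracted; inactive controls average about 0.047.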
# 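Note: Bxb1 expression induced with 0.2% (w/v) L-rhamnose at OD600 near 0.5, cultures sampled hourly, flipped fraction per protease–substrate barcode pair counted by paired-end Illumina sequencing.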
Variant,area with substrate ENLYAQS,area with substrate ENLYCQS,area with substrate ENLYDQS,area with substrate ENLYEQS,area with substrate ENLYGQS,area with substrate ENLYHQS,area with substrate ENLYIQS,area with substrate ENLYKQS,area with substrate ENLYLQS,area with substrate ENLYMQS,area with substrate ENLYNQS,area with substrate ENLYRQS,area with substrate ENLYSQS,area with substrate ENLYTQS,area with substrate ENLYVQS,area with substrate ENLYWQS,area with substrate ENLYYQS,area with substrate ENLYPQS,area with substrate ENLYQQS
N53Y,0.0607,0.078,0.0614,0.0688,0.0626,0.0563,0.0801,0.0635,0.0629,0.072,0.0572,0.0617,0.0584,0.0377,0.0885,0.062,0.0708,,
N53W,0.0647,0.06,0.064,0.0583,0.0595,0.0647,0.128,0.0644,,0.0919,0.0681,0.0525,0.0776,0.0717,0.0896,0.0652,0.0562,0.0529,0.0699
F49W,0.0651,0.0717,0.0303,0.0635,0.0733,0.0661,0.11,0.0652,0.0818,0.0671,0.0732,0.0456,0.0604,0.0845,0.0981,0.0754,0.0577,0.0563,
R81Y,0.0678,,0.0637,0.0702,0.0648,,0.0628,0.057,,,0.0613,0.0567,0.0737,0.0623,0.0952,0.12,0.0558,0.0501,
K66G,0.0711,0.094,0.0305,0.0609,0.0442,0.0683,,,0.081,0.0686,0.0507,0.0519,0.0719,0.0685,0.102,0.0846,0.056,0.0626,
T30P,0.0732,,0.0645,,0.07,,0.102,0.0689,,0.0797,0.0505,,,,0.0803,,,,0.0754
T30I,0.0401,,0.0518,0.0585,0.064,0.0617,,0.0676,,0.0805,,0.0553,0.0933,,,0.0794,0.0654,0.116,0.0548
I36K,0.0388,0.0437,,0.0349,,0.0366,,,,,,,0.0489,,,0.0352,,,
L61R,0.0917,0.0648,,,0.0743,0.0763,,,,0.0955,0.0624,,,,0.181,0.0861,,0.0738,0.059
H76V,0.0662,0.0855,,0.0703,,,0.103,0.0525,0.123,0.0641,0.0864,,,,0.0714,,0.0657,0.0719,
T71N,0.0819,,0.0621,0.057,0.0586,0.0493,0.107,0.0657,0.0795,,0.0632,0.061,0.0537,0.0693,0.101,,0.0754,0.0663,
T71K,0.0911,,,,,0.0674,,0.0606,,,0.0328,0.0772,0.0659,,0.13,,0.0782,,
T71G,0.0971,,0.0469,0.0649,0.0564,0.0667,0.079,0.0283,,0.068,0.059,0.0533,,,,,,0.047,0.061
T55L,0.0893,,0.0675,0.0625,0.0633,0.0625,0.111,0.0406,,0.0823,0.0689,0.0672,0.0349,,,0.0713,,0.0605,0.065
T55D,0.0881,0.0746,0.0576,0.0635,,0.0517,0.113,0.0651,,0.0762,0.0435,0.0576,0.072,,0.0349,0.073,,0.0773,
T55N,0.0784,0.0701,,0.0783,0.0732,0.0565,,0.0602,,0.0757,0.0642,,0.147,0.0741,0.125,0.09,0.0833,,0.0627
G63S,0.0787,,0.0583,0.0622,0.0594,0.0772,0.119,0.0658,0.0852,0.0769,0.0684,0.0268,,,0.131,0.0648,0.0832,0.0587,0.0555
R51W,0.0914,,0.0908,0.059,0.0438,0.0659,0.128,0.0418,,,,,,0.102,,,,0.0898,0.0651
R51P,0.0715,,0.048,0.0665,0.0534,0.0709,0.0762,0.0664,,,0.0714,0.0635,,0.0708,,0.0458,0.0635,0.0576,0.046
P40V,0.0806,,,0.0661,0.061,0.0598,0.116,0.0478,,0.0849,0.0533,0.0629,0.0745,,0.108,0.0792,0.0636,0.0748,0.0736
G37Y,0.0494,,0.0586,0.0518,0.0564,0.0495,0.0703,0.0415,0.0687,0.0436,0.0597,0.0593,0.056,0.06,,0.0503,,0.0664,
D79P,0.0663,,,0.052,0.0628,0.102,0.106,,,,,0.0526,,,,0.115,,,
F92D,0.0641,,0.0612,0.0541,0.0729,,0.0598,0.0638,0.0508,0.052,0.0623,,0.0564,0.0564,0.0744,0.0749,,0.0549,
L73H,0.0421,,0.0542,0.0584,0.0469,,0.0537,0.0495,,,0.0503,0.0395,,0.0528,0.0466,0.0447,,0.0143,0.0518
L73D,0.0636,0.0504,0.0673,0.0471,0.0388,0.0505,,0.054,0.0462,,0.0535,0.0529,,,0.0517,0.0428,0.0483,0.0641,0.0427
V67K,0.0438,,0.0665,0.0562,,0.0569,0.0659,0.0574,0.0623,0.0586,0.0057,0.0582,,,,0.0727,0.0565,0.0634,0.0514
